# According to the supplement of paper PMC12632987:
# The full ranking holds about 2,300 sequences; the median of “median log2 fold change of GCK-ALFA target abundance (FLAG IP / Myc IP barcode read proportion)” is about 0.095, and the lowest 2% start at about -0.47. Some of the results follow.
# B1: LC3A_23_604 (protein)
# chain: KYLVSLTVDFIAEPEEAKEIVEKLKEAVEEILEKNKDLVVEHEIDVEFTELPDGRTLVEVDIDIIIDSTKEEAEEIANELTKAASEVAPDGVISSEVEEL
# B2: LC3A_28_1093 (protein)
# chain: SALDKSLEAALAETRAAAAAGEEVLVTITITDDATEEDIEKLKETLEEIAEIGKSLPRLTVVIDLEGKNQEEKANIISEFADELEEKYPNLTIIIALEEE
# B3: LC3A_free_46_2318 (protein)
# chain: YKAEISIDLYGIDKEKAEKAVEEIVKKAKEIAKKYGLKLEIKVNIEKNEDGTYYVNIDITLEGDDKEKLEAAVNEIIAAVDEIAEKYGASYVISYEIEEE
# B4: LC3A_28_1137 (protein)
# chain: MEIVEEARKQIREDAEKDKDEPDVLLRVRLTGEVTVEEAREIMDIVEEEVEKLKDKEKIYVLVEALEPISQEVLDEILDRGDEIEKKFPNVDVIVALPED
# B5: LC3A_28_1038 (protein)
# chain: SALQAAAEAALAEAEKQLAEGDEAVVTLDVPPTPKEEAVATVKAFLDRLIELSKKYGNKKIHVVINYDGDQETLDAIIDIAEEAEEKNPNLTVIIAYDDK
# B6: LC3A_147_429 (protein)
# chain: YVTDVDIDILTKDAEEEVLAMARAIKEELEARGYKVTLEINVEELENGEKFIDIRITIETATLEEAQAAADYVVDRFDELEEKLKDKILGSIISVDIEKA
# B7: LC3A_132_245 (protein)
# chain: EEEEAEKLKKELEEKLKKLEESLDDLEKVKKLVAEIEELLEEAKKKLSPETALEIFEYVSDKLDEIAEKAEKAGKKDVARLIENASMYADGLAIEEELKL
# B8: LC3A_28_956 (protein)
# chain: SALEEALKKAIEEAKKAAEKGEPAVITIKVPGDADEEDIEKVIEALREIAEILKDVKGAAIIVDVDGKVKQEHIDKIAEEAERIEKEYPNVTVIIALDEE
# B9: LC3A_3_1422 (protein)
# chain: MEERLEEALEALREAGWSEETLEAFREFVELLLERGAEEEAEEAIELVLENKDLSSERLLEVLEEAIALLKTPGVSPEEAIEKLKELLTIAKNEQEIIEL
# B10: LC3A_147_418 (protein)
# chain: GVLEFSIDILGKLTDEEIEELVKALEATARAHGAEVKSEVKVEELPGGERYVEITLTLTGVAKEDAQALFNALVDTVDEFIEKNKDKIKGAIISHEYIET
# B11: LC3A_free_0_2110 (protein)
# chain: MKIRGVVTVLTLEKISEEKAERLEEKAREIAERFAKRTGLEVELEVERKDGYLTITVTVIAEGKSREEVLDLLFEIERELLEAFEEEGVEAISSIEIEEL
# B12: LC3A_3_1609 (protein)
# chain: SEELVEENLKRLREAGLSEKVLEAARKVLEALAKKGFEEAAKTLTEELLKAKDLPDERLLATLEEILKVVETEDLNEEELIKIIKEEFRVARLEAEIIEL
# B13: LC3A_3_1446 (protein)
# chain: AEELREEALELLKERGASEETIEAAKELFDELIKKGYLESLKLVLEWLKKVKDASDEFLLEAFKSLLELVKTSDLSPEEMKKKIEEELNSFESELEIEEL
# B14: LC3A_free_39_2197 (protein)
# chain: SEEEREEAIEELLKLAREEGEEAEELARELIKLLGEKLEYAKELLELAKEAKEAGVDLKEVLKEALELAKKLKAEGKSEEEIAEAVLELIRDYINLIPID
# B15: LC3A_28_969 (protein)
# chain: MDIDEELEEALKKAKEAKEKGEPTVITIKVPGTTNEEDTEKIIEALEEIAEILKDIKGAAIIIDIDGDVPQENITKLLNKAEEIEKKYPNITVIFELDEK
# B16: LC3A_28_713 (protein)
# chain: MELEKSIEEALEEARRAAERGEEAVITIKVEGEATEEETEKVMEAIEEIAEITKDLKSTTIIVDVDGKVPQEHIDKIADRAEEVEERYPNVTVIIALDEE
# B17: LC3A_28_774 (protein)
# chain: MDVKENVERAIKEAKEAKERGEETVIEIKIPDGATAEDIDIVIKGLEEIAEITKDMKRVSVVVDIDGGVKQEHIDKLLDKAEEIEEKYPNVTVIFALDEE
# B18: LC3A_147_422 (protein)
# chain: YKATVTVDLIVKGDAEEALAAIDELTAELLAEGADKVEIERERDPETGEIWVTVTITKTTATLEEAQAFADAVIDRFEALEAKYKDKLKIGAISVEIEEA
# B19: LC3A_28_1265 (protein)
# chain: AAMEARIAAFLAAAEAARAAGEPAVLTLSIGGDATAEDVDRAIAALRRAAELLRDIPGTAIVIDVDADVAQENVDRLMAAAEEVEAATGRVTVIIALEDA
# B20: LC3A_28_703 (protein)
# chain: SMLEKNIEKAIEEAKKAAEKGEEAVITIKVPSTATQEDIEKVIEALEEIAEITKDLKSTSIIVDVEGGVKQEYIDKLIDKGEEIEKKYPNVTVIIALDEE
# B21: LC3A_61_2041 (protein)
# chain: MEEEFEELLEELKELGLSEETLELLEEIYEKDPEGAIALAKEIVEALKAGLKPEVVEELVEETLERVKAAETPEEVRAIIAEAIEEVRDLINLIPLEDLR
# B22: LC3A_28_764 (protein)
# chain: MSIADEVAAAIAEAREAAARGEPAVITIKVPAGATQEDIDLVIAGMREIAEITKDMESTAIIVDVDSGVPQENIDKLADAGEEIEKKYPNVTVIIALDED
# B23: LC3A_28_984 (protein)
# chain: MDIAEQIDALIAEARAAAAAGEPRVFTLKIPSTATEEDIEKAIAGLREIGAILADVPGSAIVIDVESGVKEEHIDKLADAAEEVEAANPNVTVIIALDEE
# B24: LC3A_102_157 (protein)
# chain: KIEELLEEGERRIRELAEELAETLSPEEAEELRELVERALELLRRYAEELKIGSQHDFETVEGVAAELELEELIRRLEEMGAEEIARALRETLEELKKLA
# B25: LC3A_147_472 (protein)
# chain: VKAVVDIDILTKDAEEEVKEKIKEIVEELKKKGYKVELEIETEKLPDGTTYIKVKITIEAETLEKAKEAANEVIDKLEEMEEELKDKILGSIISVDIEEE
# B26: LC3A_free_8_2483 (protein)
# chain: NSEKLAQEVVKLLSELEERLVALAREEGASRLDILELELLVGSTIAEVISLRDKSIEEIRKETEEGLKEIIAEAAKVGPKVAALAEEGAKEILETIDKAE
# B27: LC3A_3_1672 (protein)
# chain: MEEAIGRLLEAERARGASEEQLAELREALEELLKVSSEKVLERLVELLLEAEDVPVEQKIDAVRDIVYEIKKNNLSEEEQIELVESEVRAIRHGTEIEEL
# B28: LC3A_141_355 (protein)
# chain: KTLTLKYTIKAKTPEEAIKKLEEVKKEIKKKMEEEGFKSVDITATITTKNKKTGETTTETVKETVTKENIDLVFDSLIIEVASAALKGDVTVDITATLIE
# B29: LC3A_28_1123 (protein)
# chain: SARRAAWRAALAEAKALAAKGEDVVATFTATGDDTEEDVRYLVEVIREAAKYLAEKGQSSILLDIDGSLPEHLRNYLIDKADEIEKEYPSVNIVIALEED
# Target: MAP1LC3A, Q9H492
# Test: median log2 fold change of GCK-ALFA target abundance (FLAG IP / Myc IP barcode read proportion) (log2 ratio); each designed protein is fused to an ALFA-tag nanobody in HEK293 cells to bring the named protein to FLAG-tagged glucokinase (GCK); Myc marks an untargeted standard; higher = target protein stabilised (more abundant)
# Conditions: target protein: 3xFLAG-MCP-GCK-ALFA reporter; HEK293 landing pad (RPLP)
# Outline: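 An ALFA-nanobody-fused binder library was recombined into HEK293 landing-pad cells and induced with 2 μg mL^−1 doxycycline. Cells were transfected with a plasmid expressing a FLAG-tagged target and a Myc-tagged standard. After 48 h, lysates underwent anti-FLAG and anti-Myc immunoprecipitation, and circular RNA barcodes were reverse transcribed, amplified and sequenced. Target abundance is the per-binder median log2 ratio of FLAG to Myc barcode read proportions. Barcodes needed ≥10^−7 proportion in both replicates, binders ≥3 barcodes per replicate, and a 10^−6 pseudocount was added; the two replicates were pooled.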
row,Binder,median log2 fold change
1,B1,-0.0448
2,B2,0.0472
3,B3,-0.208
4,B4,0.025
5,B5,0.0235
6,B6,-0.271
7,B7,-0.0179
8,B8,-0.0851
9,B9,0.338
10,B10,-0.0605
11,B11,0.395
12,B12,0.246
13,B13,0.262
14,B14,0.226
15,B15,0.372
16,B16,0.194
17,B17,-0.308
18,B18,0.0883
19,B19,-0.0511
20,B20,0.264
21,B21,0.0626
22,B22,-0.103
23,B23,0.0378
24,B24,0.214
25,B25,-0.0163
26,B26,-0.0519
27,B27,0.274
28,B28,0.0846
29,B29,-0.325
